According to the supplement of paper PMC10126150:
Sequences with one replicate were seen in a single cluster, so their values are uncertain.

System: ATP
Assay: switch fluorescence ratio, 500 uM ATP over buffer (Cy3 cluster intensity, sum of 5 cycles each) (fold (ratio)); higher = stronger signal-on switching upon ATP binding; sequences stand for … in TCGTCGGCAGCGTCAGATGTGTATAAGAGACAGTTTTTTTTTTTTTTTTTTTTTTTTT…TC
Details: aptamer strand: ATP DNA aptamer (quencher-CACCTGGGGGAGTATTGCGGAGGAAGG + anchor), 100 nM annealed; ATP concentration: 500 uM; one replicate
Procedure, shortened: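 The fluorescence ratio divides summed target-cycle Cy3 intensity by summed buffer-cycle Cy3 intensity for each cluster and is averaged per switch-domain sequence. Cy3-labelled switching-strand clusters on a modified Illumina MiSeq flow-cell were annealed to 100 nM quencher-labelled ATP aptamer, then imaged in selection buffer and again after 15 min with 500 uM ATP at 22 °C. Five such cycles were run, with NaOH stripping and re-annealing between them, and clusters outside 100-1000 RFU were excluded.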
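Also: ATP exposure 15 min at 22 °C before imaging.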

| Sequence | switch fluorescence ratio |
| --- | --- |
| AATATCTGCC | 1.08 |
| AATATGCTCA | 1.03 |
| AATATGTGGC | 1.01 |
| AATATTGAGC | 0.999 |
| AATCAAATGC | 1.01 |
| AATCAACCAC | 1.09 |
| AATCAAGCAA | 2.31 |
| AATCAAGGCT | 1.02 |
| AATCAGTGAA | 1.02 |
| AATCATGCGT | 0.998 |
| AATCCCTAAC | 1.02 |
| AATCCGCTTG | 1.16 |
| AATCCTGCCT | 1.33 |
| AATCCTGGGG | 1 |
| AATCGAAATT | 1.04 |
| AATCGAGATC | 1.03 |
| AATCGCCCTT | 0.988 |
| AATCGCTCT | 0.976 |
| AATCGGCCAA | 1.03 |
| AATCGGGTGG | 1.07 |
| AATCGTAGAA | 1 |
| AATCTAAACT | 1.03 |
| AATCTACCAA | 1.07 |
| AATCTACCAT | 1.02 |
| AATCTACTGC | 1.03 |

| Sequence | switch fluorescence ratio |
| --- | --- |
| AATCTATCGA | 0.966 |
| AATCTCTCAA | 1.02 |
| AATCTGCAAA | 1.79 |
| AATCTGTAGG | 0.949 |
| AATGACATTA | 0.962 |
| AATGACGGGG | 0.986 |
| AATGAGTCTC | 1.03 |
| AATGATAATT | 0.96 |
| AATGATCCAC | 1.05 |
| AATGCCCGTG | 1.05 |
| AATGCCCTTT | 0.979 |
| AATGCGAACG | 1.01 |
| AATGCGCATA | 1.03 |
| AATGCGGATT | 0.996 |
| AATGCGTTCT | 1.03 |
| AATGGACGCT | 1.03 |
| AATGGATCGT | 1 |
| AATGGATGG | 0.989 |
| AATGGCGGCG | 0.997 |
| AATGGGCGTT | 0.977 |
| AATGGGCTTT | 0.979 |
| AATGGGTCT | 1.04 |
| AATGGTGGAG | 1.03 |
| AATGTAGCTG | 1.04 |
| AATGTATGGC | 1.08 |

| Sequence | switch fluorescence ratio |
| --- | --- |
| AATGTCCGAA | 1 |
| AATGTCGGGT | 0.995 |
| AATGTGAGCC | 1.01 |
| AATGTGCTGA | 1 |
| AATGTGCTTC | 0.954 |
| AATGTGGCAA | 1.08 |
| AATGTGTAGC | 1.01 |
| AATGTGTGTT | 1.02 |
| AATGTTCGGG | 1.02 |
| AATGTTCTAC | 1.02 |
| AATGTTTACA | 1.02 |
| AATTAACAGA | 1.04 |
| AATTAACAGG | 1.06 |
| AATTAACTAA | 1.01 |
| AATTAACTCA | 1.06 |
| AATTACCGTT | 1.03 |
| AATTAGGCCT | 1.04 |
| AATTAGGCTT | 0.989 |
| AATTATCGTA | 1.01 |
| AATTATTGCT | 0.963 |
| AATTATTTCA | 1 |
| AATTCCCAGG | 4.49 |
| AATTCGAAGC | 1.07 |
| AATTCTCCGT | 1.12 |
| AATTCTGACC | 1 |

| Sequence | switch fluorescence ratio |
| --- | --- |
| AATTCTGTTT | 1.03 |
| AATTGAGCGG | 0.983 |
| AATTGCGTCG | 0.947 |
| AATTGCTATG | 1 |
| AATTGTAGAT | 0.971 |
| AATTGTCGCC | 0.981 |
| AATTGTTT | 1.03 |
| AATTTAATAC | 1.08 |
| AATTTACGTC | 0.932 |
| AATTTACTGC | 1.05 |
| AATTTAGGCT | 0.966 |
| AATTTATTCG | 1.02 |
| AATTTGAGTA | 0.962 |
| AATTTGGCGA | 1.02 |
| ACAAACGCGG | 1.26 |
| ACAAAGGATG | 1.06 |
| ACAACGCTGT | 1.22 |
| ACAACTTAAA | 0.981 |
| ACAACTTTAC | 1.14 |
| ACAAGATGGA | 0.963 |
| ACAAGGTGTA | 1.06 |
| ACAAGTTGGG | 0.957 |
| ACAATCGCCG | 1.03 |
| ACAATGATCT | 1 |
| ACAATGGAGA | 0.966 |

| Sequence | switch fluorescence ratio |
| --- | --- |
| ACAATGGGCC | 1 |
| ACAATGTTCA | 1.07 |
| ACAATTGAAT | 0.972 |
| ACAATTGCCC | 1.05 |
| ACAATTGTT | 1.01 |
| ACACAGAA | 1.03 |
| ACACATCTAA | 0.977 |
| ACACATGGGT | 1.01 |
| ACACATGTCA | 1.02 |
| ACACCCACGC | 1.33 |
| ACACCCAGTA | 1.11 |
| ACACGAAACA | 1.18 |
| ACACGAAATA | 1.12 |
| ACACGAACGA | 1.49 |
| ACACGCATGG | 1.23 |
| ACACGCGGTC | 1.19 |
| ACACGCTGAG | 1.07 |
| ACACGCTTGA | 1.05 |
| ACACGGATTA | 1.06 |
| ACACGGGATC | 1.07 |
| ACACGGGGTC | 1.02 |
| ACACGGTGGT | 1.05 |
| ACACGGTGTT | 1.03 |
| ACACGGTTCC | 1.08 |
| ACACTAATAA | 1.03 |

| Sequence | switch fluorescence ratio |
| --- | --- |
| ACACTAGAAA | 1.06 |
| ACACTATAGA | 1.07 |
| ACACTATTAC | 1.19 |
| ACACTCAGTT | 1.04 |
| ACACTCTGTC | 0.988 |
| ACACTTCGGA | 1.02 |
| ACACTTGGTT | 1.06 |
| ACAGAAAAGG | 0.985 |
| ACAGAAGGCA | 1.04 |
| ACAGAGCACG | 1.06 |
| ACAGAGGATA | 1.03 |
| ACAGAGTGCT | 1.02 |
| ACAGATAGGT | 1.06 |
| ACAGATAGTG | 0.967 |
| ACAGCACGTC | 1.35 |
| ACAGCCGCGT | 1.25 |
| ACAGCCGGCG | 1.06 |
| ACAGCGCCC | 1.05 |
| ACAGCGCTCA | 1.06 |
| ACAGCGGAG | 1.03 |
| ACAGGACGTA | 1 |
| ACAGGACTTC | 1.03 |
| ACAGGATCA | 1 |
| ACAGGCAGCA | 1.04 |
| ACAGGCGTGT | 1.03 |

| Sequence | switch fluorescence ratio |
| --- | --- |
| ACAGGCTGCT | 1 |
| ACAGGGAATT | 1.01 |
| ACAGGGGAGG | 1.1 |
| ACAGGGGTGC | 1.15 |
| ACAGGGTAAG | 1.01 |
| ACAGGGTGAA | 1.01 |
| ACAGGTTTCC | 0.954 |
| ACAGGTTTGG | 1.01 |
| ACAGTACCAT | 1.4 |
| ACAGTATAT | 1.12 |
| ACAGTCATCA | 1.03 |
| ACAGTCATCG | 1.04 |
| ACAGTGGTGT | 1.15 |
| ACAGTGTCGC | 1 |
| ACAGTTCTCG | 0.978 |
| ACAGTTTTTG | 1.06 |
| ACATAACCTT | 1.73 |
| ACATACACCG | 1.33 |
| ACATAGAAAT | 1.02 |
| ACATAGAAGT | 1.03 |
| ACATAGGCAA | 0.999 |
| ACATAGGCTA | 1.01 |
| ACATAGTGGC | 1.02 |
| ACATCAAGAT | 1.03 |
| ACATCAGAGT | 0.999 |

| Sequence | switch fluorescence ratio |
| --- | --- |
| ACATCCACCT | 1.31 |
| ACATCCGGTG | 1.07 |
| ACATCGAT | 0.995 |
| ACATCGCCGT | 1.01 |
| ACATCGGCAA | 1.72 |
| ACATCGTAA | 0.995 |
| ACATCTTATT | 1.02 |
| ACATGAGCAC | 1.1 |
| ACATGAGGAA | 0.959 |
| ACATGATATG | 1 |
| ACATGCGTAC | 1.15 |
| ACATGCTCCA | 0.992 |
| ACATGGCCTT | 1.03 |
| ACATGGCGGA | 1.02 |
| ACATGGGCAA | 0.969 |
| ACATGGGCAC | 1 |
| ACATGGTTG | 1.04 |
| ACATGTAAGT | 1 |
| ACATGTGTTG | 1.03 |
| ACATGTTCTA | 1.04 |
| ACATTAATTA | 1.07 |
| ACATTACAAT | 1.2 |
| ACATTACACT | 1.26 |
| ACATTAGAAC | 1.02 |
| ACATTATTCC | 1.09 |
